# In all, about 110,000 compounds were measured (“z-score”: median about -0.1, highest 2% from about 2 on). This is one part of the list. Activity calls are given as the source filed them.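 The calls were made as follows: active = z-score in the third read window above 3 or below -3; inactive = the rest.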
# Target: Metabotropic glutamate receptor 8 (Rattus norvegicus) (UniProt P70579)
# Assay: mGluR8 Gi/Go-coupled signaling modulation – cell-based, rat, thallium flux, HTS, primary screen (AID 488969)
# Settings: HEK293 rat mGluR8, GIRK (G protein-gated inwardly rectifying potassium channel) thallium flux, FluoZin2; at 10 µM; stronger effect = higher value; submaximal glutamate (EC20) added with thallium
# Chain of UniProt P70579 (P70579 whole entry, looked up): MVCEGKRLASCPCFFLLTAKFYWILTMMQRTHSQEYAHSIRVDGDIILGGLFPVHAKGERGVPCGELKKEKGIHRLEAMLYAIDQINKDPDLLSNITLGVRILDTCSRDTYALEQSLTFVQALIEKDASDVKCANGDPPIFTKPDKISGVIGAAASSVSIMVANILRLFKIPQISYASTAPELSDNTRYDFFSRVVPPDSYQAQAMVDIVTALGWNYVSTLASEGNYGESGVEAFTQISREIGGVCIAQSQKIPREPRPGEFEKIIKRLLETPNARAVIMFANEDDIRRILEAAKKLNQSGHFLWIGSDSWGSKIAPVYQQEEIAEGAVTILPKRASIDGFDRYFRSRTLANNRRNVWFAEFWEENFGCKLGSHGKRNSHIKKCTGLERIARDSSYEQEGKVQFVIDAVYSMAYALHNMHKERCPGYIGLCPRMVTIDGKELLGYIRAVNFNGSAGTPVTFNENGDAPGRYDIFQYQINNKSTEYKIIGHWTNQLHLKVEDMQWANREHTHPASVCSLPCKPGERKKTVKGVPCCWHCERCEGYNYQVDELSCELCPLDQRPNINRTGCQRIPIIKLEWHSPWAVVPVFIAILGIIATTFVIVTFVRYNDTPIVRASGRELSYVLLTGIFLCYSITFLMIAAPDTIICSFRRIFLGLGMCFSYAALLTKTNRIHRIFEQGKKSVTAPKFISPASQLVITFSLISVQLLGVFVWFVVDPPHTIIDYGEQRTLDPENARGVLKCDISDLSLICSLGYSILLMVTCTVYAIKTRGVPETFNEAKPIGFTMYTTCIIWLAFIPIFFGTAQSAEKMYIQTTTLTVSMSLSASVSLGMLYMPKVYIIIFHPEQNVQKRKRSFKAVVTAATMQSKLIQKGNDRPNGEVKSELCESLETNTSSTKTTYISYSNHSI
row,Compound,z-score
1,Cc1cccc(NC(=S)NCc2ccco2)c1C,-0.0634
2,CCN(CC)CCN1C(=O)c2oc3ccccc3c(=O)c2C1c1ccccc1 (configuration not stated),active: 3.81
3,CCOC(=O)CSc1nc(N)c(C#N)c(-c2cccs2)c1C#N,0.202
4,CCC(CC)NC(=O)c1ccccc1Oc1ccccc1,-0.739
5,COCCCNC(=O)c1ccc(N(C)S(C)(=O)=O)cc1,0.0312
6,O=C(Cc1c[nH]c2ccccc12)N/N=C/c1cccc(F)c1,-0.285
7,O=c1oc2ccccc2nc1/C=C(O)/C=C\c1ccccc1,-0.0618
8,CCCCN(CCCC)CP(=O)(c1ccccc1)c1ccccc1,1.14
9,Cc1cccc(CC2CC(=O)N(C3CCCCC3)C2=O)c1 (configuration not stated),0.249
10,COc1ccc(S(=O)(=O)n2cnc3cc(C)c(C)cc32)cc1C,0.00762
11,CCCNC(=S)NC1CC2CCC(C1)N2Cc1ccccc1 (configuration not stated),-0.0426
12,COCCNC(=O)C(C)N1c2cccc3cccc(c23)S1(=O)=O (configuration not stated),-0.117
13,Cc1cc(C)nc(NS(=O)(=O)c2ccc(NC(=S)NC(=O)C(C)C)cc2)n1,-0.0841
14,Cc1ccc(OCC(=O)N/N=C/c2cn[nH]c2-c2ccc(Cl)c(Cl)c2)cc1,0.00282
15,Cc1ccc(NC(=O)COC(=O)CNC(=O)c2ccc3ccccc3c2)c([N+](=O)[O-])c1,-0.387
16,O=C1C(Cl)=C(NCCc2ccccc2)C(=O)N1CCc1ccccc1,-0.229

row,Compound,z-score
1,COc1ccc(-n2cc(C(=O)O)c3ccccc3c2=O)cc1,2.28
2,CC1=C(C(=O)NC2CCCC(C)C2C)C2(CCCCC2)OC1=O (configuration not stated),-0.124
3,O=C(CCCc1nc2ccccc2s1)Nc1nccs1,-1.01
4,Cc1ccc(CSc2ccc(-c3cccs3)nn2)cc1,-0.133
5,COCCCN1C(=O)c2ccccc2C1C(=O)NC1CCCCCC1 (configuration not stated),0.0327
6,Cc1oc(CSCC2CCCO2)cc1C(=O)O (configuration not stated),0.173
7,O=C(OCC(=O)c1c[nH]c2ccccc12)c1cc2ccccc2cc1O,-0.0971
8,O=[N+]([O-])c1cccc(C2Nc3cccc4cccc(c34)N2)c1,-0.0194
9,COc1ccc(N(CC(=O)NC2CCCCCC2)S(=O)(=O)c2c(C)nn(C)c2C)cc1,0.268
10,Nc1cc2sc(-c3ccc(C(=O)O)cc3)nc2cc1Cl,-0.21
11,Cc1ccc2c(n1)sc1c(-c3ccc(Br)cc3)c(C#N)c(N)nc12,-0.164
12,CC1(C)CC(=O)C2=C(C1)OC(N)=C(C#N)C21CCC2(CC1)OCCO2,-0.25
13,CC1=C(C(=O)OC(C)C)C(c2ccncc2)n2ncnc2N1 (configuration not stated),-0.572
14,CCOC(=O)N1CCN(C2CC(=O)N(c3ccc(Oc4ccccc4)cc3)C2=O)CC1 (configuration not stated),0.281
15,C=CCNc1nnc(SC2CC(=O)N(c3ccc(OC)cc3)C2=O)s1 (configuration not stated),0.794
16,COc1cccc(NC(=O)CSc2nnc(-c3cc(C)n(-c4ccccc4)c3C)o2)c1,-0.0485

# From PubChem BioAssay AID488969 (Vanderbilt High Throughput Screening Facility, 2010)
